Assay results from PubChem BioAssay (Tox21).
Inconclusive results are not listed. Calls follow the shape of the dose curve; as a rule, active = well fitted curve in the direction sought with a large enough effect in the repeat runs; inconclusive = weak or mixed curves; inactive = no such curve, though single readings can be large; an effect the other way counts as inactive or inconclusive. More than one record can exist for a structure, and the calls need not agree. Some entries of the source have several records that differ or are many. This is not the full list of results. The source may hold further records. The values listed for one entry are repeated measurements across runs, samples, wells, individuals or studies. A tag in brackets gives the origin of a value. A, B and so on number the origins entry by entry.

Experiment: qHTS assay to identify small molecule antagonists of the thyroid receptor (TR) signaling pathway (AID 743065); also: nearly all actives have a fitted effect of over 55% in size
Conditions: GH3.TRE-Luc, T3-stimulated luciferase inhibition, 23.5 h; series mostly up to 70.3 µM
Summary of the method: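 GH3.TRE-Luc rat pituitary cells (two TREs driving luciferase) were dosed with compound, then stimulated with 1 nM T3 (final) for 23.5 h at 37 C. ONE-Glo luminescence was the read-out, with CellTiter-Fluor fluorescence as the cytotoxicity counter-screen.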
Potency is read from the fitted curve at half-maximal effect.

Row | SMILES | Potency
1 | CCCCC/C=C\C/C=C\CCCCCCCC(=O)OC | inactive [sample A] and active: 54.5 µM [sample B]
2 | OCC#CCO | inactive [sample A] and active: 27.3 µM [sample B]
3 | CC1=C(/C=C/C(C)=C/C=C/C(C)=C/CO)C(C)(C)CCC1 | inactive [sample A] and active: 61.9 µM [sample B]

Experiment: qHTS assay to identify small molecule agonists of the constitutive androstane receptor (CAR) signaling pathway - cell viability counter screen (AID 1224836); also: nearly all actives have a fitted effect of over 45% in size
Conditions: HepG2-CYP2B6-hCAR viability, CellTiter-Fluor, 23 h, PK11195 added to every well; series mostly up to 92.4 µM
Summary of the method: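 23 h treatment, 37 C, 5% CO2. Cell line: HepG2 stably expressing hCAR with a CYP2B6-2.2kb construct. Co-treatment: PK11195, 0.75 uM final. Read-out: CellTiter-Fluor fluorescence intensity.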

Row | SMILES | Potency
4 | CS(=O)(=O)Nc1ccc([N+](=O)[O-])cc1Oc1ccccc1 | active: 48.6 µM [sample A] and inactive [sample B]
5 | Cc1cc(O)c2c(c1)C(=O)c1cc(O)cc(O)c1C2=O | inactive [sample A] and active: 54.5 µM [sample B]
6 | CCCCC(CC)COC(=O)CCCCCCCC(=O)OCC(CC)CCCC (centres undefined) | active: 19.3 µM [sample A] and inactive [sample B]
7 | COC(=O)c1ccc(C(=O)OC)cc1 | active: 17.5 µM [sample A] and inactive [sample B]

Experiment: qHTS assay to identify small molecule antagonists of the estrogen receptor alpha (ER-alpha) signaling pathway using the BG1 cell line in the presence of 0.1 nM 17-beta-estradiol - cell viability counter screen (AID 1259241); also: nearly all actives have a fitted effect of over 40% in size
Conditions: VM7Luc4E2 (BG1) viability, CellTiter-Fluor protease, 22 h, 0.1 nM estradiol agonist added; series mostly up to 92.4 µM
Summary of the method: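 In this screen, hormone-deprived VM7Luc4E2 cells were seeded at 4,000 per well, dosed with compound and 0.1 nM estradiol final, and incubated 22 hr at 37C and 5% CO2; fluorogenic live-cell protease signal reported viability.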

Row | SMILES | Potency
8 | Cc1cc(O)c2c(c1)C(=O)c1cc(O)cc(O)c1C2=O | inactive [sample A] and active: 21.7 µM [sample B]
9 | CCCCC(CC)COC(=O)CCCCCCCC(=O)OCC(CC)CCCC (centres undefined) | active: 30.6 µM [sample A] and inactive [sample B]
10 | COC(=O)c1ccc(C(=O)OC)cc1 | active: 22 µM [sample A] and inactive [sample B]

Experiment: qHTS assay to identify small molecule antagonists of the progesterone receptor (PR) signaling pathway - cell viability counter screen (AID 1346798); also: nearly all actives have a fitted effect of over 50% in size
Conditions: PR-UAS-bla HEK293T viability, CellTiter-Glo luminescence, 16 h; series mostly up to 92.4 µM
Summary of the method: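 In the same plates used for the beta-lactamase readout, cell viability of compound- and R5020-treated PR-UAS-bla HEK293T cells (16 hr, 37C) was assessed by CellTiter-Glo luminescence.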

Row | SMILES | Potency
11 | c1ccc2[nH]cnc2c1 | active: 2.16 µM [sample A] and inactive [sample B]
12 | CCCCCCOC(C)=O | inactive [sample A] and active: 19.3 µM [sample B]
13 | CCCCC(CC)COC(=O)CCCCCCCC(=O)OCC(CC)CCCC (centres undefined) | active: 17.2 µM [sample A] and inactive [sample B]
14 | COC(=O)c1ccc(C(=O)OC)cc1 | active: 7.8 µM [sample A] and inactive [sample B]
